# Measured values as given in paper PMC12136788.
# The list shows a part of the results.
# B1: chr8:17644361:17644462:-|3pUTR|ENSG00000129422|msi1|FALSE|bound_elsewhere (ssRNA)
# RNA: GGGAGUUCUACAGUCCGACGAUCCAACAUUGUGAUGUCAGUAUUUACUAAUCUACAUUCAGUGGCUGUACAAAUAACAGCUGUAGUAAGAAGAGAUUCAGGAUGCUAGAGGUGAAUAUUUGGGUCAUUUACAUGUACACUACACAACAGAGGAUUGAGCAUCA
# B2: chr18:2547350:2547451:-|CDS|ENSG00000101574|unk|FALSE|unique (ssRNA)
# RNA: GGGAGUUCUACAGUCCGACGAUCUAGACAGAAGCACCUACGUUUUAUAAAGGAAGAACUUUAUCCCUCUUGGUCUGUGGAGGUAGUUGCUGAGUGGCACUGGGUAAAAGUAAGUUCAGAAGUUAGCUUAUUUGUUAAUACAGCCAACAGAGGAUUGAGCAUCA
# B3: chr15:52582156:52582307:-|CDS|ENSG00000047346|control|control|control (ssRNA)
# RNA: GGGAGUUCUACAGUCCGACGAUCAAGAUCUACCUCCAUAGAGACGUACGGCUCCUGUUCUCUAGAAAGUCAAUGGAGGUUGAUAGCGGUGCUGCAUAUGAACUCAAAUCUUACACUGAAUCACCAACAAACCCUCAGUUUUCACAACAGAGGAUUGAGCAUCA
# B4: chr1:54216159:54216271:+|CDS|ENSG00000116221|unk|total|mutant (ssRNA)
# RNA: GGGAGUUCUACAGUCCGACGAUCCUUGGAGCAGCCCGUGGUGGUGCAGAGCGUGGGCACGGAUGGACGUGUCUUCCAUUUCCCCGUGUUUCAACUGAAUACCACAGACCUGGACUGUAACGAGGGUGUCAAGAAUUUGGCCUGCAACAGAGGAUUGAGCAUCA
# B5: chr12:27081967:27082483:-|CDS|ENSG00000214700|control|control|control (ssRNA)
# RNA: GGGAGUUCUACAGUCCGACGAUCGAGAACAAAACUGUCUGUUGGCAAACUGAAUAAUCUUGUGCAAGAGUUUCAGAUAUUUCUAGAAAAUCUGAAAGAUGAUGACGCUGUAUUUCCUGAAACUGCUCAGCAAGAUUUCCAGCUCAACAGAGGAUUGAGCAUCA
# B6: chr14:88572724:88572825:+|CDS|ENSG00000100722|unk|total|mutant (ssRNA)
# RNA: GGGAGUUCUACAGUCCGACGAUCGUGACACUUACAUAUGGUUCUUCUCGCCCUUCUAUUGAAAUUUAUCGACCACCUGCAAGCCGAAAUGCAGACCGUGGUGUUCAUUUAAACAGGUUGCAAUUUCAACAGCAGCAGAACCGUCAACAGAGGAUUGAGCAUCA
# B7: chr19:49662424:49662617:-|CDS|ENSG00000126456|control|control|control (ssRNA)
# RNA: GGGAGUUCUACAGUCCGACGAUCGUUACUGGGUAACAUGGUGUUGGCCCCACUCCCAGAUCCGGGACCCCCAAGCCUGGCUGUAGCCCCUGAGCCCUGCCCUCAGCCCCUGCGGAGCCCCAGCUUGGACAAUCCCACUCCCUUCAACAGAGGAUUGAGCAUCA
# B8: chr1:45741042:45741143:-|CDS|ENSG00000197429|msi1|FALSE|unique (ssRNA)
# RNA: GGGAGUUCUACAGUCCGACGAUCUGCCAUGAUCUCUUGGAAUUCUCAGAAAACUACAUUCAUGUCCAUUUCUUGGAGGUUCAUAGUGGAGAAGAGUUCCUGGCACUUACGAAAGAUCAGCUGAUCAAAAUUUUGCGAAGUGAACAACAGAGGAUUGAGCAUCA
# B9: chr12:6238111:6238124:+|3pUTR|ENSG00000010278|msi1_unk|total|mutant (ssRNA)
# RNA: GGGAGUUCUACAGUCCGACGAUCUGUUUGUUUUUGCUUGUUAUAUUAAGCAGAAAUCCUGCAAUGAAAGGUACUAUAUUUGCCCGACUCCCGACAAGAUAUUGUACAUAAAAGAAUUUUUUUGUCUUUAAACCGAUACAAAUGCAACAGAGGAUUGAGCAUCA
# B10: chr16:67976092:67976228:-|CDS|ENSG00000141096|control|control|control (ssRNA)
# RNA: GGGAGUUCUACAGUCCGACGAUCCCUCAGGGGCUGGAGGAUGUGUCCACAUACCCAGUCCUGAUAGAGGAGUUGCUGAGUCGUAGCUGGAGCGAGGAAGAGCUUCAAGGUGUCCUUCGUGGAAACCUGCUGCGGGUCUUCAGACAACAGAGGAUUGAGCAUCA
# B11: chr12:6965432:6965572:-|3pUTR|ENSG00000215021|unk|total|mutant (ssRNA)
# RNA: GGGAGUUCUACAGUCCGACGAUCUGCGAUGGUCCCCCACACCGGUUCCCUGAACCCCUCUUGGAUUAAGGAAGACUGAAGACCCGCCCCUUUUCUGGGGAAUUACUUUCCUCCUCCCUGUGUUAACUGGGGCUGUUGGGGACACAACAGAGGAUUGAGCAUCA
# B12: ENSG00000136451:be:win_1401|CDS|ENSG00000136451|bound_else_gene|NA|bound_elsewhere_windowed (ssRNA)
# RNA: GGGAGUUCUACAGUCCGACGAUCCACCCCCGUCACUGCCCCAGUGAAUAUAGCACACCCUGUCACCAUCACAUCUCCAAUGAAUCUACCCACACCUAUGACAUUAGCCGCCCCUCUCAAUAUAGCAAUGAGACCUGUAGAGAGCAACAGAGGAUUGAGCAUCA
# B13: chr7:41967724:41967825:-|CDS|ENSG00000106571|msi1|FALSE|bound_elsewhere (ssRNA)
# RNA: GGGAGUUCUACAGUCCGACGAUCCCCCAUCAGCAACUAUUCCAACAGUGGGCUCGAGCUUCCUCUGACCGAUGGAGGUAGUAUAGGAGACCUCAGUGCCAUCGAUGAAACCCCAAUCAUGGACUCAACCAUUUCCACUGCAACCAACAGAGGAUUGAGCAUCA
# B14: chr3:179334266:179334377:+|CDS|ENSG00000121864|unk|total|mutant (ssRNA)
# RNA: GGGAGUUCUACAGUCCGACGAUCUUAUUUAUGUCAAUAUUGUGAAUAUUCAACAGGACAAAUUGAAGAUCUUAAAAUUCAUCCCGAUUUCAAGCAUUCAGCUGACUUGCCUCAUAAAUGCCGUGACUGCUUGAUGAGGUUUGGCAACAGAGGAUUGAGCAUCA
# Biological target: T1, UNK ZnF1-6 (called full-length) (human, UniProt Q9C0B0 30-357)
# T1 sequence: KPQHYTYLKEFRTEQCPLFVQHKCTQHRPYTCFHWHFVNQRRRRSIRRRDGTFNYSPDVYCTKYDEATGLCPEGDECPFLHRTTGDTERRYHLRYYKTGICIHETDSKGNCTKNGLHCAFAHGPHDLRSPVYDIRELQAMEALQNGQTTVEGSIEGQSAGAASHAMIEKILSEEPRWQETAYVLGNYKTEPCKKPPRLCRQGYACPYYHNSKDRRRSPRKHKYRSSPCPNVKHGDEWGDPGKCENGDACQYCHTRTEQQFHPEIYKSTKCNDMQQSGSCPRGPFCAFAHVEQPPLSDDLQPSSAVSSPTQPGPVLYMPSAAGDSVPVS
# Assay: nsRBNS (natural sequence RNA bind-n-seq); RBNS binding buffer (assumed for nsRBNS): 25 mM Tris pH 7.5, 150 mM KCl, 3 mM MgCl2, 0.01% Triton X-100, 500 ug/ml BSA, 20 U/ml SUPERase-In, 4 C; UNK is unkempt and MSI1 is Musashi-1; names of the RNAs are library labels; protein concentration not given here; high values mean tight binding
row,Binder,binding signal
1,B1,0.301 enrichment R
2,B2,0.729 enrichment R
3,B3,0.648 enrichment R
4,B4,0.731 enrichment R
5,B5,0.268 enrichment R
6,B6,0.566 enrichment R
7,B7,1.06 enrichment R
8,B8,0.258 enrichment R
9,B9,0.428 enrichment R
10,B10,0.577 enrichment R
11,B11,0.701 enrichment R
12,B12,1.59 enrichment R
13,B13,0.689 enrichment R
14,B14,0.321 enrichment R
